From the supplement of paper PMC9588766 come the findings set out here.

The structures appear in SMILES notation. Structures can show the parent of a compound that is named as a salt. ± gives the standard deviation of the averaged measurements. Whole data set: some 2,000 compounds, median “cell viability relative to DMSO control (compound alone)” near 0.98, cut for the lowest 2% near 0.23. The list shows a part of the results.

In the experiment the test system is PDC-DUC18828. The experiment in a line: cell viability relative to DMSO control (compound alone) (fraction); PDC-DUC18828 is a patient-derived cholangiocarcinoma cell line; higher = less growth inhibition. Particulars: 1 µM; 72 h. The method, then: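 Selleck Bioactive library screen in the patient-derived FGFR2-G3BP2 fusion-positive ICC cell line PDC-DUC18828 (500 cells/well). Each compound was tested at 1 uM alone, in triplicate, for 72 h. Viability was read by CellTiter-Glo and normalised to plate DMSO controls.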
As to `CC(NCCc1ccc(O)cc1)C(O)c1ccc(O)cc1` (stereo unspecified) [Ritodrine HCl], the cell viability stood at 0.964 ± 0.038.
The result for `CN1CCN(C(=O)c2cc3cc(Cl)ccc3[nH]2)CC1` reads 0.8855 ± 0.0061; that for `CC(=O)OCC(=O)[C@@]1(O)CC[C@H]2[C@@H]3CCC4=CC(=O)C=C[C@]4(C)[C@H]3[C@@H](O)C[C@@]21C` [Prednisolone Acetate], 0.909 ± 0.044.
In turn, `COc1ccc(CNc2nc(N3CCC[C@H]3CO)ncc2C(=O)NCc2ncccn2)cc1Cl` [Avanafil] showed a cell viability of 0.976 ± 0.046.
Compound `COC(=O)N[C@H](C(=O)N1CC2(CC2)C[C@H]1c1nc(-c2ccc3c(c2)C(F)(F)c2cc(-c4ccc5[nH]c([C@@H]6[C@H]7CC[C@H](C7)N6C(=O)[C@@H](NC(=O)OC)C(C)C)nc5c4)ccc2-3)c[nH]1)C(C)C` [Ledipasvir (GS5885)] registered a cell viability of 0.87 ± 0.044.
In turn, `CC[C@H](c1ccc(O)cc1)[C@@H](CC)c1ccc(O)cc1` [Hexestrol] registered a cell viability of 0.95 ± 0.018.
On to `Cc1c(Nc2ncccc2C(=O)O)cccc1C(F)(F)F` [Flunixin Meglumin], for which the cell viability was determined as 1.06 ± 0.076.
`N#CC1(c2ccc(NC(=O)c3cccnc3NCc3ccncc3)cc2)CCCC1` [Apatinib] yielded a cell viability of 1.051 ± 0.0082.
As for `OC[C@@H](O)CN1CCN(c2ccccc2)CC1` [Levodropropizine], the cell viability stood at 1.06 ± 0.082.
Compound `CC(ONC(=O)c1cc(C(F)(F)F)cc(C(F)(F)F)c1)C(=O)Nc1ccc(Cl)cc1` (stereo unspecified) yielded a cell viability of 0.949 ± 0.032.
In turn, `NCCc1ccc(O)c(O)c1` [Dopamine HCl] showed a cell viability of 0.513 ± 0.048.
As for `Nc1nc(N)c2nc(-c3cccc(O)c3)c(-c3cccc(O)c3)nc2n1`, the cell viability turned out to be 1.05 ± 0.071.
`Cn1cnc2c(F)c(Nc3ccc(Br)cc3Cl)c(C(=O)NOCCO)cc21` [Selumetinib (AZD6244)] had a cell viability of 0.927 ± 0.054.
Compound `C[C@H](CS)C(=O)N1CCC[C@H]1C(=O)O` [Captopril] came in with a cell viability of 1.11 ± 0.056.
Take `CN(Cc1cc(Br)cc(Br)c1N)C1CCCCC1` [Bromhexine HCl]: the cell viability came out at 1.06 ± 0.027.
In turn, `O=C(c1ccccc1)c1ccc2nc(NC(=O)c3csc(C4CCN(c5ncnc6ccsc56)CC4)n3)[nH]c2c1` gave a cell viability of 1.03 ± 0.038.
Compound `Cn1c(N2CCCCS2(=O)=O)nc(C(=O)NCc2ccc(F)cc2)c(O)c1=O` yielded a cell viability of 0.972 ± 0.028.
Compound `C[N+](C)(C)CC(O)CC(=O)[O-]` (racemic) [DL-Carnitine HCl] returned a cell viability of 1.03 ± 0.03.
Then `CCS(=O)(=O)N1CCN(c2ccc(Nc3ncc(C(N)=O)c(NC4CC4)n3)cc2)CC1`, with 0.8 ± 0.017; and `C[N+](C)(C)C[C@H](O)CC(=O)[O-]` [L-carnitine], with 0.955 ± 0.09.
`C=CC[N+]1([C@H]2C[C@H]3[C@@H]4CC[C@H]5C[C@H](O)[C@@H](N6CCOCC6)C[C@]5(C)[C@H]4CC[C@]3(C)[C@H]2OC(C)=O)CCCC1` [Rocuronium Bromide] yielded a cell viability of 0.997 ± 0.032.
As to `Cc1ccc(C(=O)Cn2c3c(sc2=N)CCCC3)cc1` [Pifithrin-α (PFTα)], the cell viability worked out at 1.01 ± 0.031.
As to `CC(C)(C)NC(=O)[C@H]1CC[C@H]2[C@@H]3CC[C@H]4NC(=O)C=C[C@]4(C)[C@H]3CC[C@]12C` [Finasteride], the cell viability stood at 0.915 ± 0.033.
In turn, `C=C1CC[C@H](O)C/C1=C/C=C1\CCC[C@]2(C)[C@@H]([C@H](C)/C=C/[C@H](C)C(C)C)CC[C@@H]12` [Vitamin D2] gave a cell viability of 0.992 ± 0.014.
For the compound `Nc1nc(N)c2nc(-c3ccccc3)c(N)nc2n1` [Triamterene], the cell viability came out at 0.999 ± 0.068.
The compound `COc1ccc(CCC(=O)Nc2nc3ccc(Cl)cc3s2)cc1OC` had a cell viability of 1.02 ± 0.022.
The compound `C=C1C(=O)O[C@H]2[C@H]1CC/C(C)=C/CC[C@@]1(C)O[C@@H]21` [(-)-Parthenolide] registered a cell viability of 0.828 ± 0.036.
In the case of `CCCCOc1ccc(C(=O)CCN2CCCCC2)cc1` [Dyclonine HCl], the cell viability turned out to be 1.07 ± 0.034.
As to `CC(C)(C)CC(C)(C)c1ccc(OCCOCC[N+](C)(C)Cc2ccccc2)cc1` [Benzethonium Chloride], the cell viability was determined as 0.998 ± 0.012.
In turn, `Cn1nnc2c(C(N)=O)ncn2c1=O` [Temozolomide] displayed a cell viability of 0.965 ± 0.018.
Turning to `O=[N+]([O-])c1cn2c(n1)OC[C@@H](OCc1ccc(OC(F)(F)F)cc1)C2`, the cell viability is 0.924 ± 0.075.
`O=c1cc[nH]c(=O)[nH]1` [Uracil] returned a cell viability of 1.08 ± 0.066.
As to `COc1ccc(-c2cc(=O)c3c(OC)c(OC)c(OC)c(OC)c3o2)cc1OC` [Nobiletin], the cell viability worked out at 0.939 ± 0.076.
The result for `Cc1ccc(C(=O)Nc2cccc(C(F)(F)F)c2)cc1Nc1nc(-c2cccnc2)nc2c1cnn2C` reads 1.02 ± 0.016.
Then `CCOC(=O)N1c2ccc(C(F)(F)F)cc2[C@@H](N(Cc2cc(C(F)(F)F)cc(C(F)(F)F)c2)C(=O)OC)C[C@H]1CC` [Torcetrapib], with 1.07 ± 0.026; and `CO[C@H]1C[C@@H]2CC[C@@H](C)[C@@](O)(O2)C(=O)C(=O)N2CCCC[C@H]2C(=O)O[C@H]([C@H](C)C[C@@H]2CC[C@@H](OC(=O)C(C)(CO)CO)[C@H](OC)C2)CC(=O)[C@H](C)/C=C(\C)[C@@H](O)[C@@H](OC)C(=O)[C@H](C)C[C@H](C)/C=C/C=C/C=C/1C`, with 0.545 ± 0.057; and `CCC[C@@H]1C[C@@H](C(=O)N[C@@H]([C@H]2O[C@H](SC)[C@H](O)[C@@H](O)[C@H]2O)[C@@H](C)O)N(C)C1` [Lincomycin HCl], with 0.98 ± 0.028.
Consider `N#Cc1c(Oc2ccc(F)c(NC(=O)Cc3cccc(C(F)(F)F)c3)c2)ccc2nc(NC(=O)C3CC3)sc12`, for which the cell viability came out at 0.918 ± 0.087.
For `Cc1ccc(CNc2ncnc3ccc(-c4ccc(CO)o4)cc23)o1`, the cell viability came to 0.917 ± 0.06.
The result for `CN1C(C(=O)Nc2ccccn2)=C(O)c2sc(Cl)cc2S1(=O)=O` [Lornoxicam] reads 1.1 ± 0.0054; that for `CC12CC3CC(C)(C1)CC(N)(C3)C2` [Memantine HCl], 1.01 ± 0.018.
`O=C(O)c1ccc(C=C2SC(=S)N(c3cccc(C(F)(F)F)c3)C2=O)cc1` showed a cell viability of 0.981 ± 0.031.
`COc1ccc(-c2cc(=O)c3c(OC)c(OC)c(OC)c(OC)c3o2)cc1` [Tangeretin] displayed a cell viability of 0.963 ± 0.032.
As for `Cc1cccc(-c2nn3c(c2-c2ccnc4ccc(C(N)=O)cc24)CCC3)n1`, the cell viability worked out at 1.1 ± 0.013.
On to `CC(C)c1nc(CN(C)C(=O)N[C@@H](CCN2CCOCC2)C(=O)N[C@H](CC[C@H](Cc2ccccc2)NC(=O)OCc2cncs2)Cc2ccccc2)cs1` [Cobicistat (GS-9350)], for which the cell viability came to 1.01 ± 0.07.
Compound `Cc1cc(C)nc(NS(=O)(=O)c2ccc(NC(=S)NC(=O)COc3ccc(Br)cc3Cl)cc2)n1` returned a cell viability of 1.01 ± 0.08.
For `O=C(Nc1cccnc1)N1CCC(Cc2cccc(Oc3ccc(C(F)(F)F)cn3)c2)CC1`, the cell viability is 1.01 ± 0.047.
For `CCCCc1oc2ccccc2c1C(=O)c1cc(I)c(OCCN(CC)CC)c(I)c1` [Amiodarone HCl], the cell viability turned out to be 0.975 ± 0.045.
`O=C(O)c1cccnc1` [Nicotinic Acid] showed a cell viability of 1.031 ± 0.0061.
Take `C=CCNC1=C2C[C@@H](C)C[C@H](OC)[C@H](O)[C@@H](C)/C=C(\C)[C@H](OC(N)=O)[C@@H](OC)/C=C\C=C(/C)C(=O)NC(=CC1=O)C2=O` [17-AAG (Tanespimycin)]: the cell viability turned out to be 0.315 ± 0.02.
`Cc1cccc(N(C)C(=S)Oc2ccc3ccccc3c2)c1` [Tolnaftate] gave a cell viability of 1.06 ± 0.032.
As for `O=c1[nH]c(=O)n([C@H]2C[C@H](O)[C@@H](CO)O2)cc1I` [Idoxuridine], the cell viability came out at 0.994 ± 0.032.
Then `CN1CCN(c2ccc3nc(-c4c(N)c5c(F)cccc5[nH]c4=O)[nH]c3c2)CC1` [Dovitinib (TKI258) Lactate], with 0.743 ± 0.046; and `CN1CCN(c2ccc3nc(-c4c(N)c5c(F)cccc5[nH]c4=O)[nH]c3c2)CC1` [Dovitinib (TKI-258, CHIR-258)], with 0.942 ± 0.046; and `COc1ccc(-c2ccc3cc(C(=O)O)ccc3c2)cc1C12CC3CC(CC(C3)C1)C2` [Adapalene], with 1.01 ± 0.012.
The result for `COc1cc2c(NC3CCN(CC4CCCCC4)CC3)nc(N3CCCN(C(C)C)CC3)nc2cc1OCCCN1CCCCC1` reads 0.996 ± 0.034.
On to `NNC(=O)c1ccncc1` [Isoniazid], for which the cell viability amounted to 1.02 ± 0.073.
Then `CC1(C)C=C(CN2C/C(=C\c3ccc(F)cc3)C(=O)/C(=C/c3ccc(F)cc3)C2)C(C)(C)N1O`, with 0.952 ± 0.061.
The compound `C[C@H]1C[C@H]2[C@@H]3CCC4=CC(=O)C=C[C@]4(C)[C@H]3C(=O)C[C@]2(C)[C@@]1(O)C(=O)CO` [Meprednisone] registered a cell viability of 1.04 ± 0.011.
With `Cc1ccc(S(=O)(=O)OCC(=O)Nc2ccc(C(=O)O)c(O)c2)cc1`, the cell viability is 0.988 ± 0.018.
In turn, `O=C(O)CCCN1CCC(O[C@@H](c2ccc(Cl)cc2)c2ccccn2)CC1` [Bepotastine Besilate] had a cell viability of 0.972 ± 0.023.
Turning to `Cn1c(=O)c(F)c(Nc2ccc(I)cc2F)c2c(=O)n(C[C@@H](O)CO)cnc21`, the cell viability was 0.663 ± 0.098.
`COc1ccc(/C=C/C(=O)C2(C(=O)/C=C/c3ccc(OC)c(OC)c3)CCCCC2)cc1OC` returned a cell viability of 0.824 ± 0.12.
`COc1ccc(-c2cc3c(C)nc(N)nc3n([C@H]3CC[C@H](OCCO)CC3)c2=O)cn1` showed a cell viability of 0.222 ± 0.0044.
With `CCC(C)(C)c1ccc(CC(C)CN2C[C@@H](C)O[C@@H](C)C2)cc1` (stereo partly specified) [Amorolfine HCl], the cell viability was 0.999 ± 0.026.
Turning to `CC(C)N(CCC(=O)c1ccc2ccccc2c1)Cc1ccccc1`, the cell viability was found to be 1.05 ± 0.02.
The result for `CC(C)(C)C#Cc1cc(N(C(=O)[C@H]2CC[C@H](C)CC2)[C@H]2CC[C@H](O)CC2)c(C(=O)O)s1` [VX-222 (VCH-222, Lomibuvir)] reads 1 ± 0.021; that for `CCOC(=O)c1ccc(C#Cc2ccc3c(c2)C(C)(C)CCS3)nc1` [Tazarotene], 1.08 ± 0.051.
Turning to `CCCNS(=O)(=O)Nc1ncnc(OCCOc2ncc(Br)cn2)c1-c1ccc(Br)cc1` [Macitentan], the cell viability turned out to be 0.993 ± 0.038.
For the compound `CCOc1nc2cccc(C(=O)OC(C)OC(=O)OC3CCCCC3)c2n1Cc1ccc(-c2ccccc2-c2nn[nH]n2)cc1` (stereo unspecified) [Candesartan Cilexetil], the cell viability was found to be 1.04 ± 0.047.
The result for `Nc1ccc(S(N)(=O)=O)cc1` [Sulfanilamide] reads 0.973 ± 0.038; that for `CCN1CCC[C@H]1CNC(=O)c1cc(S(N)(=O)=O)ccc1OC` [Levosulpiride], 1.02 ± 0.049; that for `CC(C)(Oc1ccc(C2CC2(Cl)Cl)cc1)C(=O)O` (stereo unspecified) [Ciprofibrate], 0.932 ± 0.082.
Take `N#CC(=C(/N)Sc1ccccc1N)/C(C#N)=C(\N)Sc1ccccc1N`: the cell viability came to 0.937 ± 0.07.
The compound `COc1ccc(CNCc2cccc3ccccc23)cc1` yielded a cell viability of 1.03 ± 0.077.
The compound `NC(=O)[C@@H](CCC(F)(F)F)N(Cc1ccc(-c2ncon2)cc1F)S(=O)(=O)c1ccc(Cl)cc1` returned a cell viability of 0.934 ± 0.071.
